Results on 111 sequences are retold here after the supplement of paper PMC3724861.

Some of the results follow.

This assay relates to T1, Caupolican (Caup) homeodomain DNA-binding domain.
T1 sequence: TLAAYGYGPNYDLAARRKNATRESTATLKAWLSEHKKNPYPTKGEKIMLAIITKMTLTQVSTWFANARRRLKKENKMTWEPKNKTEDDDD
Nature of the assay: PBM E-score (8-mer, recovered from the published 9-mer minima) (E-score (dimensionless, -0.5 to 0.5)); Drosophila protein; higher = stronger relative binding preference, active = 0.31 or more. In short, it runs like this: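 An enrichment score, with higher meaning stronger, expresses relative binding preference for each short DNA word. The protein used was Caup's homeodomain DNA-binding domain (residues 214-303), produced by in vitro transcription and translation and tested at 100 nM on custom-designed protein binding microarrays. The 8-mer values were recovered from published 9-mer scores, each equal to the lower of its two constituent 8-mer scores.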
GGCTTTGA: the “PBM E-score” value is inactive: -0.13.
The same measure for ACATCCCA: inactive: 0.16; for CAATAGAC: inactive: 0.139.
Consider GAGAGGGA, for which the “PBM E-score” value is inactive: -0.175.
To ATCCCTAC belongs inactive: -0.0132.
To AGCTAACA belongs inactive: 0.146; to CCGTTAGG, inactive: -0.194.
The same measure for AGGCCAAT: inactive: -0.0746.
As to TGGTCAAA, the “PBM E-score” value was inactive: 0.0685.
To CCAGCCCC belongs inactive: -0.234; to AATTATGG, inactive: 0.0916; to GTCGACAC, inactive: 0.175.
The same measure for CATCGTAC: inactive: 0.176.
Regarding TACGTAAA, the “PBM E-score” value is inactive: 0.169.
In the case of CACCTTAA, the “PBM E-score” value is inactive: -0.0428.
To GTGTTGGA belongs inactive: 0.187.
The same measure for CGGGTCAA: inactive: -0.0606; for TGTGAACA: active: 0.31; for ATGAATTG: inactive: 0.0886.
To GCACCCCA belongs inactive: -0.19; to AATCAGGG, inactive: -0.0973.
Take ACGGGACG: the “PBM E-score” value is inactive: -0.211.
The same measure for GTCAGCGA: inactive: -0.0418.
The same measure for CCCACCAG: inactive: -0.123; for ATGAGTCA: inactive: 0.0791.
The same measure for ATATTCAG: inactive: 0.129.
Take AAAATACT: the “PBM E-score” value is inactive: 0.04.
For AAATATGT, the “PBM E-score” value is active: 0.335.
To CAAGTCCG belongs inactive: 0.0488.
In the case of ACAATCGC, the “PBM E-score” value is inactive: 0.0572.
The same measure for ACCACGGT: inactive: 0.0353.
To CCCGTAGA belongs inactive: -0.105.
The same measure for ACATGCCC: inactive: 0.291; for AGGTCTAA: inactive: -0.0834.
Regarding TTTCCAAA, the “PBM E-score” value was inactive: 0.103.
To AGATTACG belongs inactive: 0.103; to AGACCTTA, no less than -0.00031; to TATAATAA, inactive: 0.205.
To CCAATGGG belongs inactive: -0.135; to ACTCATGA, inactive: 0.119; to ACCTCACC, inactive: -0.0864.
To TATATAAA belongs inactive: 0.192; to CATTCTCA, inactive: 0.0391; to GTTGATGA, inactive: 0.0578.
Turning to CATACGCA, the “PBM E-score” value was inactive: 0.0306.
AGGACGAC: the “PBM E-score” value is inactive: 0.056.
The same measure for AATTTATG: inactive: 0.147; for CACGGCCG: inactive: -0.107.
For GATTTTGA, the “PBM E-score” value is inactive: 0.142.
In the case of CCATTACC, the “PBM E-score” value was inactive: -0.0281.
The same measure for AGATCAGC: inactive: -0.0286; for ATCTCTTC: inactive: 0.0107; for ACTCGCGC: inactive: -0.157.
Regarding CGAAAATA, the “PBM E-score” value is inactive: 0.0964.
The same measure for GAGAGTTA: inactive: 0.011.
TGGGTCAA: the “PBM E-score” value was inactive: -0.0662.
To CGACGACG belongs inactive: -0.119; to CATCCGCA, inactive: -0.0118.
In the case of CTTTATTA, the “PBM E-score” value was inactive: 0.109.
The same measure for AAACTTAT: inactive: 0.115; for AGGCAAGA: no less than 0.00925.
The same measure for ATGAAGCG: inactive: -0.0578.
The same measure for ACCGGTTC: inactive: -0.103; for CATCTAGC: inactive: 0.0524; for CACGTTCC: inactive: 0.0171.
AGGTCGCC: the “PBM E-score” value is inactive: -0.202.
The same measure for AGAGTAGA: inactive: -0.0248; for CAAACACA: inactive: 0.265; for CAAGCTAG: inactive: -0.0491.
The same measure for CGCGACGA: inactive: -0.0716; for CCCGGATC: inactive: -0.129; for TGCACAAA: inactive: 0.132.
As for AGCCATAC, the “PBM E-score” value was inactive: -0.0319.
To AAAGATCC belongs inactive: -0.0594.
To AGGTTCCG belongs inactive: -0.0912; to CTCTTTTA, inactive: 0.00936; to CAGGGTCG, inactive: -0.262.
For AAGATCGT, the “PBM E-score” value is inactive: 0.00731.
For the sequence CGGAATAA, the “PBM E-score” value was inactive: -0.0285.
For ATGGTAAA, the “PBM E-score” value is inactive: 0.125.
On to CTTTTTAC, for which the “PBM E-score” value was inactive: 0.0875.
The same measure for AGTTCTTG: inactive: 0.0824.
The same measure for CACTGCAC: inactive: -0.0121; for GTTCTTCA: inactive: -0.0295.
With AAATCGTA, the “PBM E-score” value is inactive: 0.105.
In the case of GAATGGTA, the “PBM E-score” value was no less than 0.18.
To ATGGCAAC belongs inactive: 0.0784.
Regarding GTGTGTGA, the “PBM E-score” value was inactive: 0.0881.
The same measure for CACACAGG: inactive: -0.0176; for CACCCACG: inactive: -0.151.
To ATATGGCA belongs inactive: 0.115; to GCTGCCAA, inactive: -0.0937; to GATGTTGC, inactive: 0.234.
In the case of ACAGACTC, the “PBM E-score” value is inactive: 0.0867.
Turning to CCGTTTAA, the “PBM E-score” value was inactive: -0.0446.
With AGTGTCTC, the “PBM E-score” value is inactive: -0.021.
Regarding AATCCTCG, the “PBM E-score” value is inactive: 0.00431.
On to ACCAGTTA, for which the “PBM E-score” value was inactive: 0.13.
To CGCTGTCA belongs inactive: 0.0371; to CAGCACAC, inactive: -0.00172; to ACAACAAG, active: 0.362.
To GTGTATCA belongs inactive: 0.276; to GGACCCTA, inactive: -0.0629; to GCTGCGGA, inactive: -0.178.
The same measure for CGAGTAAC: inactive: 0.141; for CCCCAACG: inactive: -0.129.
Take TTCGACAA: the “PBM E-score” value was inactive: 0.279.
In the case of ACTTCCCC, the “PBM E-score” value was inactive: -0.172.
To CTAGCACA belongs inactive: -0.0509.
The same measure for ACGTGCAT: no less than 0.126.
In the case of CTTAGGGA, the “PBM E-score” value was inactive: -0.0959.
